Here are results for 29 molecules from the supplement of paper PMC10037445.

The structures appear in SMILES notation. Whole data set: some 2,900 compounds, median “IRF Lucia reporter activity, fold change vs agonist alone” near 0.9, cut for the highest 2% near 2.8. The list shows a part of the results.

Test [1] deals with RAW-Dual. Kind of test: IRF Lucia reporter activity, fold change vs agonist alone; higher = enhanced IRF activity. The settings on record: library stock concentration (final ~1000-fold dilution): 10 mM, agonist: MPLA (TLR4) […]. In a few lines:
(§1)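 RAW-Dual macrophages were seeded in DMEM at 50,000 cells/well in 384-well plates, given 50 nL of library stock by pin tool, and given a PRR agonist 1 h later. Plates were held at 37 °C, 5% CO2 for 20 hours, after which supernatant was read for IRF by QuantiLuc luminescence and for NF-κB by QuantiBlue absorbance at 620 nm. Reporter activity is expressed as fold change over wells that received agonist alone. A well was called cytotoxic when IncuCyte confluency fell below 70% of agonist controls in both mask sets.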

Test [2] deals with RAW-Dual. Kind of test: IRF Lucia reporter activity, fold change vs agonist alone; cytotoxicity flag (confluency mask): not cytotoxic; higher = enhanced IRF activity. The essentials: as §1
Test [3] concerns RAW-Dual. Description: IRF Lucia reporter activity, fold change vs agonist alone; cytotoxicity flag (confluency mask): cytotoxic (confluency <70% of control); higher = enhanced IRF activity. The essentials: as §1
Setting [4] is: cytotoxicity flag (confluency mask): not cytotoxic.
The mark [5] stands for this setting: agonist: 3'3'-cGAMP (STING) 10 ug/mL.

As to `C/C(=C\C(=O)Nc1ccccc1C(=O)O)c1ccc2ccccc2c1`, the “IRF Lucia reporter activity” value in the test with RAW-Dual [1] (setting [4]) is 0.935.
Turning to `O=C(c1ccc(/C=C/c2n[nH]c3ccccc23)cc1)N1CCNCC1`, the “IRF Lucia reporter activity” value in the test with RAW-Dual [1] (setting [4]) turned out to be 0.0347.
As for `O=C(c1ccc(/C=C/c2n[nH]c3ccccc23)cc1)N1CCNCC1` (library stock concentration (final ~1000-fold dilution): 10 mM), the “IRF Lucia reporter activity” value with RAW-Dual [2] (setting [5]) is 0.0176; in the test on RAW-Dual [2] (agonist: LPS (TLR4) 0.1 ug/mL), 0.0178.
For `CC(=O)C(=O)Oc1ccccc1C(=O)O` (library stock concentration (final ~1000-fold dilution): 10 mM), the “IRF Lucia reporter activity” value in the test on RAW-Dual [2] (setting [5]) came to 0.0153; in the test with RAW-Dual [2] (agonist: LPS (TLR4) 0.1 ug/mL), 0.0192.
Turning to `Cc1ccc(-n2sc(=O)n(Cc3ccc(F)cc3)c2=O)cc1`, in the test on RAW-Dual [1] (cytotoxicity flag (confluency mask): cytotoxic (confluency <70% of control)), the “IRF Lucia reporter activity” value stood at 0.703.
`Cc1ccc(-n2sc(=O)n(Cc3ccc(F)cc3)c2=O)cc1` (library stock concentration (final ~1000-fold dilution): 10 mM): the figures for the “IRF Lucia reporter activity” value in the test with RAW-Dual [3] (setting [5]) and in the test with RAW-Dual [3] (agonist: LPS (TLR4) 0.1 ug/mL) were 0.62 and 0.473, respectively.
With `Cn1nc(C(C)(C)C)cc1C(=O)NC(Cc1cccc(Cl)c1)C(=O)NCC#N` (stereo unspecified), the “IRF Lucia reporter activity” value in the test on RAW-Dual [1] (setting [4]) is 1.11.
With `Cn1nc(C(C)(C)C)cc1C(=O)NC(Cc1cccc(Cl)c1)C(=O)NCC#N` (stereo unspecified) (library stock concentration (final ~1000-fold dilution): 10 mM), the “IRF Lucia reporter activity” value with RAW-Dual [2] (setting [5]) was found to be 1.16; with RAW-Dual [2] (agonist: LPS (TLR4) 0.1 ug/mL) it was 1.01.
In the case of `O=C(NCCN1CCOCC1)c1ccc(Cl)cc1`, the “IRF Lucia reporter activity” value with RAW-Dual [1] (setting [4]) is 0.932.
Turning to `O=C(NCCN1CCOCC1)c1ccc(Cl)cc1` (library stock concentration (final ~1000-fold dilution): 10 mM), the “IRF Lucia reporter activity” value worked out at 1.57 with RAW-Dual [2] (setting [5]) and 0.939 in the test with RAW-Dual [2] (agonist: LPS (TLR4) 0.1 ug/mL).
In the case of `Cc1cc(Cl)ccc1OCCCC(=O)NO` (library stock concentration (final ~1000-fold dilution): 10 mM), the “IRF Lucia reporter activity” value in the test on RAW-Dual [2] (setting [5]) was determined as 0.0817; in the test on RAW-Dual [2] (agonist: LPS (TLR4) 0.1 ug/mL), 1.04.
As to `Cc1cc(Cl)ccc1OCCCC(=O)NO`, the “IRF Lucia reporter activity” value in the test with RAW-Dual [1] (setting [4]) is 0.704.
In the case of `CC(C)(C)NC(=O)C1CN(Cc2cccnc2)CCN1CC(O)CC(Cc1ccccc1)C(=O)NC1c2ccccc2CC1O.O=S(=O)(O)O` (stereo unspecified) (library stock concentration (final ~1000-fold dilution): 10 mM), the “IRF Lucia reporter activity” value stood at 1.1 in the test on RAW-Dual [2] (setting [5]) and 0.77 in the test with RAW-Dual [2] (agonist: LPS (TLR4) 0.1 ug/mL).
Regarding `CN(C)CCOc1ccc(-c2nc(-c3ccncc3)c(-c3ccc4c(c3)CC/C4=N\O)[nH]2)cc1`, the “IRF Lucia reporter activity” value with RAW-Dual [1] (setting [4]) is 1.04.
In the case of `CN(C)CCOc1ccc(-c2nc(-c3ccncc3)c(-c3ccc4c(c3)CC/C4=N\O)[nH]2)cc1` (library stock concentration (final ~1000-fold dilution): 10 mM), the results for the “IRF Lucia reporter activity” value in the test with RAW-Dual [2] (setting [5]) and with RAW-Dual [2] (agonist: LPS (TLR4) 0.1 ug/mL) were 0.992 and 3.04, respectively.
As to `COc1ccc(-c2oc3c(CC=C(C)C)c(OC4OC(CO)C(O)C(O)C4O)cc(O)c3c(=O)c2OC2OC(C)C(O)C(O)C2O)cc1` (stereo unspecified), in the test on RAW-Dual [1] (setting [4]), the “IRF Lucia reporter activity” value was 1.07.
As to `COc1ccc(-c2oc3c(CC=C(C)C)c(OC4OC(CO)C(O)C(O)C4O)cc(O)c3c(=O)c2OC2OC(C)C(O)C(O)C2O)cc1` (stereo unspecified) (library stock concentration (final ~1000-fold dilution): 10 mM), the results for the “IRF Lucia reporter activity” value in the test on RAW-Dual [2] (setting [5]) and with RAW-Dual [2] (agonist: LPS (TLR4) 0.1 ug/mL) were 0.985 and 1.04, respectively.
In the case of `C1=CCOCc2cc(ccc2OCCN2CCCC2)Nc2nccc(n2)-c2cccc(c2)COC1` (library stock concentration (final ~1000-fold dilution): 10 mM), the “IRF Lucia reporter activity” value with RAW-Dual [3] (setting [5]) is 0.0112; in the test on RAW-Dual [3] (agonist: LPS (TLR4) 0.1 ug/mL), 0.0217.
Turning to `OCC1OC(Oc2ccc(O)cc2)C(O)C(O)C1O` (stereo unspecified) (library stock concentration (final ~1000-fold dilution): 10 mM), the “IRF Lucia reporter activity” value came to 1 in the test on RAW-Dual [2] (setting [5]) and 0.862 in the test with RAW-Dual [2] (agonist: LPS (TLR4) 0.1 ug/mL).
On to `OCC1OC(Oc2ccc(O)cc2)C(O)C(O)C1O` (stereo unspecified), for which the “IRF Lucia reporter activity” value with RAW-Dual [1] (setting [4]) turned out to be 1.02.
`Cc1c(Br)c(Br)c2c3c1nc(N1CCNCC1)n3CCC2.Cl` (library stock concentration (final ~1000-fold dilution): 10 mM): the “IRF Lucia reporter activity” value was determined as 0.0133 with RAW-Dual [3] (setting [5]) and 0.0103 in the test on RAW-Dual [3] (agonist: LPS (TLR4) 0.1 ug/mL).
Consider `Cc1ccc(Nc2ncc3c(n2)N(C)C(=O)N(c2cc(NC(=O)c4cccc(C(F)(F)F)c4)ccc2C)C3)cn1` (library stock concentration (final ~1000-fold dilution): 10 mM), for which the “IRF Lucia reporter activity” value worked out at 0.242 with RAW-Dual [2] (setting [5]) and 0.0192 with RAW-Dual [2] (agonist: LPS (TLR4) 0.1 ug/mL).
In the case of `O=C(Oc1ccccc1C(=O)O)c1ccccc1O` (library stock concentration (final ~1000-fold dilution): 10 mM), the “IRF Lucia reporter activity” value was found to be 0.744 with RAW-Dual [2] (setting [5]) and 0.892 in the test with RAW-Dual [2] (agonist: LPS (TLR4) 0.1 ug/mL).
Consider `COc1c(C)c2c(c(O)c1C/C=C(\C)CCC(=O)O)C(=O)OC2`, for which the “IRF Lucia reporter activity” value with RAW-Dual [1] (setting [4]) is 1.14.
On to `COc1c(C)c2c(c(O)c1C/C=C(\C)CCC(=O)O)C(=O)OC2` (library stock concentration (final ~1000-fold dilution): 10 mM), for which the “IRF Lucia reporter activity” value in the test with RAW-Dual [2] (setting [5]) stood at 0.989; with RAW-Dual [2] (agonist: LPS (TLR4) 0.1 ug/mL), 1.12.
The corresponding values for `CCOc1cc(CC(=O)NC(CC(C)C)c2ccccc2N2CCCCC2)ccc1C(=O)O` (stereo unspecified) (library stock concentration (final ~1000-fold dilution): 10 mM) are 0.954 and 1.19.
Take `CCOc1cc(CC(=O)NC(CC(C)C)c2ccccc2N2CCCCC2)ccc1C(=O)O` (stereo unspecified): the “IRF Lucia reporter activity” value in the test on RAW-Dual [1] (setting [4]) was found to be 1.34.
Consider `NS(=O)(=O)c1cc(Cl)c(Cl)c(S(N)(=O)=O)c1` (library stock concentration (final ~1000-fold dilution): 10 mM), for which the “IRF Lucia reporter activity” value came out at 0.98 in the test on RAW-Dual [2] (setting [5]) and 1.06 in the test with RAW-Dual [2] (agonist: LPS (TLR4) 0.1 ug/mL).
For `NS(=O)(=O)c1cc(Cl)c(Cl)c(S(N)(=O)=O)c1`, the “IRF Lucia reporter activity” value in the test on RAW-Dual [1] (setting [4]) is 0.993.
